Assay results taken from article PMC4336329 (PLoS ONE, 2015).
The whole screen tested about 310,000 compounds, of which about 14,000 (4.5%) showed an effect of 50% or more. The effect is printed as a negative number. The list shows a part of the results.

These compounds were tested against human ether-à-go-go-related gene (hERG) potassium channel (human, UniProt Q12809) (assay: primary screen, population patch clamp on CHO cells stably expressing hERG).
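Note: peak tail current of the secondary pulse compared with the same well before compound.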

human ether-à-go-go-related gene (hERG) potassium channel, sequence (Q12809 whole entry, looked up): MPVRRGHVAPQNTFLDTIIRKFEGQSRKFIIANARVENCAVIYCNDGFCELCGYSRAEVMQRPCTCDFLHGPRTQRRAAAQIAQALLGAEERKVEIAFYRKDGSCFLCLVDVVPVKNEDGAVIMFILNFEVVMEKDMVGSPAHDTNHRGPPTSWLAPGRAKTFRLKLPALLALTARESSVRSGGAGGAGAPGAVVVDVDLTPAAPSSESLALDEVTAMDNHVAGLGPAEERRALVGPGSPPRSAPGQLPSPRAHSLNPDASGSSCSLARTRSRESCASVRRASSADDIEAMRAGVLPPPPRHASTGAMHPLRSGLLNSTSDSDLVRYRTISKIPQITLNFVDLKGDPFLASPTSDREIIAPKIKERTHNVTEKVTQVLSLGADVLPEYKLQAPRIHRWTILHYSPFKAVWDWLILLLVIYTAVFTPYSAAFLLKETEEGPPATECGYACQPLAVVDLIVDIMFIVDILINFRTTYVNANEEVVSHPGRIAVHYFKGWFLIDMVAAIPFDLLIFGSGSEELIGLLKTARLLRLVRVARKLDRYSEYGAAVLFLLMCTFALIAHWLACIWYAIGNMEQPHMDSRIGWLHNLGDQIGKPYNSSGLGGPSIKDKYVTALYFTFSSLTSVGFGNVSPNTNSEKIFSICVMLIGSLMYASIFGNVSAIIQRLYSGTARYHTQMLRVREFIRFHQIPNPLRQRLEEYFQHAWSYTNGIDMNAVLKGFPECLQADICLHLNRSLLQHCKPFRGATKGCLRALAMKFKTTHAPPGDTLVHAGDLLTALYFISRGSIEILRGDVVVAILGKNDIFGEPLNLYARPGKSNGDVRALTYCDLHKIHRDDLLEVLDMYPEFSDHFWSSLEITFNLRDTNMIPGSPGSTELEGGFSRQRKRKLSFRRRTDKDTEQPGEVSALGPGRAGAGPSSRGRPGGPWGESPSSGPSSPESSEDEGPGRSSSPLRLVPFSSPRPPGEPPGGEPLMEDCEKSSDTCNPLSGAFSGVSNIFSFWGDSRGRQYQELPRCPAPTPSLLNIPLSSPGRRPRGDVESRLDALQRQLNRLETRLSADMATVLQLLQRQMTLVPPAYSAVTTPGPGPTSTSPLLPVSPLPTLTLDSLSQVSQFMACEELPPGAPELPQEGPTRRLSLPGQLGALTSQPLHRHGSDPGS

| SMILES | hERG current change (%, negative = inhibition) at 10uM |
| --- | --- |
| Cc1cc(C)c(OCC(=O)Nc2cc(C(=O)O)cc(C(=O)O)c2)cc1C | 52.1% |
| Cc1cccc2c(=O)c(C(=O)NCCCN3CCOCC3)c[nH]c12 | -2.23% |
| CCOC(=O)CC1C(=O)NCCN1C(=O)c1ccc(Cl)c(Cl)c1 (stereo not drawn) | 20.5% |
| Cc1ccc(NC(=O)Cc2cc(C(=O)O)c3ccccc3n2)c(C)c1 | 26.5% |
| CCCc1ccc(C(=O)NNC(=O)c2ccc(Cl)cc2)cc1 | -6.9% |
| COc1ccc(CCNC(=O)COC(=O)Cc2ccc(OC)cc2)cc1 | 9.48% |
| O=C(O)CN(c1ccccn1)S(=O)(=O)c1ccccc1 | -8.38% |
| COc1ccc(-n2c(SCC(N)=O)nc3nc4c(cc3c2=O)COC(C)(C)C4)cc1 | 10.1% |
| COc1ccc(N=Nc2c(O)[nH]c(=S)[nH]c2=O)cc1 | 31.7% |
| C/C(=N\O)C(C)(C)Nc1cccc(Br)c1 | 17% |
| O=C(C1COc2ccccc2O1)N1CCN(Cc2ccccc2)CC1 (stereo not drawn) | -7.63% |
| CCCCc1noc2c1/C(=N\O)CC(c1ccccc1)C2 (stereo not drawn) | 7.26% |
| O=C(Nc1ccc(-c2nc3ccccc3s2)c(O)c1)C1=COCCO1 | -73.1% |
| CCS(=O)(=O)c1nc(S(=O)(=O)c2ccc(Cl)cc2)c(NCCCN2CCOCC2)s1 | -41% |
| O=C(O)c1ccc(N2C(=O)CC(Cc3ccccc3)C2=O)cc1 (stereo not drawn) | 9.69% |
| Cc1ccc(CN(C)C(=O)c2cccc(S(=O)(=O)N3CCCC3)c2)cc1 | -10.7% |
| O=C(c1ccccc1)N1CCN(c2ncnc3c2cnn3-c2ccccc2)CC1 | -18% |
| CN(Cc1ccccc1)c1nc2c(c(=O)[nH]c(=O)n2C)n1Cc1ccccc1 | -6.42% |
| CC(=O)c1cccc(NC(=O)COC(=O)C2=COCCO2)c1 | -1.99% |
| CC(NC(=O)c1ccc2c(c1)OCO2)c1ccccc1 (stereo not drawn) | 13% |
| COc1ccc(CCNC(=O)c2ccc(CNS(=O)(=O)c3ccc(C(C)(C)C)cc3)cc2)cc1OC | 5.14% |
| Cc1ccc(C)c(S(=O)(=O)N2CCCN(C)CC2)c1 | -0.717% |

| SMILES | hERG current change (%, negative = inhibition) at 10uM |
| --- | --- |
| O=C1CC[C@H](O)CCN1[C@H](CSc1ccc(Br)cc1)Cc1ccccc1 | -24.3% |
| COc1ccc(O)c(-c2cc(-c3cccc(Br)c3)n[nH]2)c1 | 8.25% |
| COc1ccc([N+](=O)[O-])cc1N(CC(=O)O)S(C)(=O)=O | 13.7% |
| O=C(COC(=O)Cc1ccc(Br)cc1)NC1CCCCC1 | 20.8% |
| O=C(CCC(=O)c1ccc(F)cc1)Nc1cccc(C(F)(F)F)c1 | 7.22% |
| CC(CCc1ccccc1)NC(=O)CNC(=O)c1ccccc1Br (stereo not drawn) | 11.4% |
| CS(=O)(=O)N1CCCC(C(=O)NCCN2CCC(Cc3ccccc3)CC2)C1 (stereo not drawn) | -28% |
| Cc1cccc(Cl)c1NC(=S)N1CCN(c2ccc([N+](=O)[O-])cn2)CC1 | -9.86% |
| CCOC(=O)N1CCc2c(sc3nc4n(c(=O)c23)N=C(c2ccc(OC)cc2)CS4)C1 | 10.9% |
| CC1(C)CC(=O)C2=C(C1)N(CC1CCCO1)C(=O)C2(NC(=O)c1cccnc1)C(F)(F)F (stereo not drawn) | 9.64% |
| COc1ccc(S(=O)(=O)N2CCN(c3ccccc3)CC2)cc1C(=O)N1CCCC1 | -7.86% |
| COc1ccc(-c2nnc(SCC(=O)N3CCCCC3)o2)c(OC)c1 | 6.16% |
| Cc1cc(C)cc(OCc2nnc(SCC(=O)N3CCN(c4ccccc4)CC3)o2)c1 | 6.09% |
| Br.COc1ccc(-n2cc(-c3ccc(Cl)cc3)[nH]c2=S)cc1 | 9.57% |
| Cc1c(Cl)cccc1NC(=O)CNCc1ccccc1F.O=C(O)C(=O)O | 25.1% |
| Cc1cccc(C(=O)NC(=S)Nc2ccc3[nH]c(=O)[nH]c3c2)c1 | 15.6% |
| OCC[C@@H]1C[C@@H](O)[C@H](O)[C@]2(Cc3ccccc3CCO2)O1 | 20.3% |
| CCOc1cc(/C=N\NC(=O)c2ccc(C)nc2)cc([N+](=O)[O-])c1O | 3.3% |
| O=C(NCCNS(=O)(=O)c1ccccc1)c1ccc([N+](=O)[O-])cc1 | -12% |
| O=C(Cc1cccs1)NCc1cccc(CNC(=O)Cc2cccs2)c1 | 17.9% |
| O=C(CN1CCOCCOCCN(CC(=O)Nc2ccccc2)CCOCC1)Nc1ccccc1 | -12.6% |
| O=C(Nc1nnc(C2CCCC2)s1)C1CCN(S(=O)(=O)c2ccc(Cl)cc2)CC1 | 13.8% |

| SMILES | hERG current change (%, negative = inhibition) at 10uM |
| --- | --- |
| COc1ccc(OC)c(Nc2nc(-c3ccccc3O)nc3ccccc23)c1 | 18.7% |
| Cc1nn(-c2ccccc2)c(Cl)c1CN(C(=O)CCl)c1ccc(Cl)cc1 | -8.59% |
| COC(=O)c1c(NC(=O)c2ccc(C)c(S(=O)(=O)Nc3ccccc3C)c2)sc2c1CCCC2 | -2.89% |
| COc1ccc(C(=O)NCC2CCCN2S(=O)(=O)c2cccs2)cc1 (stereo not drawn) | -2.74% |
| CC(C)CNS(=O)(=O)c1ccc(OCC(=O)NCc2ccco2)cc1 | -11.6% |
| CCC1(C)Cc2c(sc3nc(NN)n(C)c(=O)c23)CO1 (stereo not drawn) | 13.4% |
| O=C(CSc1ccc(-c2ccc(Br)cc2)nn1)N1CCOCC1 | -18.7% |
| COc1ccc(/C=C2/S/C(=N/S(=O)(=O)Cc3ccccc3)NC2=O)cc1OC | -11% |
| CC(C)CN1CCN(Cc2ccc3ncccc3c2)CC1CCO (stereo not drawn) | -13.2% |
| CCN1C(=O)C(=Cc2ccc(C)s2)C(=O)N(CC)C1=S | 5.09% |
| Cc1ccc(-c2nc(C3CCCN(S(=O)(=O)c4ccc(C(F)(F)F)cc4)C3)no2)cc1 (stereo not drawn) | 15% |
| CCCc1ccc2oc(C(=O)N3CCN(CCC(N)=O)CC3)c(C)c2c1 | -20.7% |
| COc1cc(C(=O)NNC(=S)NCc2ccco2)cc(OC)c1OC | 15.9% |
| CN1C2C=C(N(CCc3c[nH]c4ccccc34)C(=O)c3ccc(Cl)cc3)CC1CC2.Cl (stereo not drawn) | -67% |
| CCOC(=O)c1c(C)[nH]c(C)c1C(=O)CSc1nc2ccccc2n1CCOC | -2.35% |
| Cc1cc(C)cc(N(C(C)C(=O)NC2CCCC2)S(C)(=O)=O)c1 (stereo not drawn) | 9.47% |
| COC(=O)C1CSC(C(=O)OC)N1C(=O)CN1CC(C)OC(C)C1 (stereo not drawn) | -3.54% |
| CC#CC(=O)NCC1(N(C)Cc2ccccc2)Cc2ccccc2C1 | -10.1% |
| COc1ccccc1CC(=O)NC1CC(C)(C)NC(C)(C)C1.Cl | -10.2% |
| Cn1cc(CNC(=O)c2ccc3nc(Cc4ccccc4F)oc3c2)cn1 | 10% |
| CCOc1ccccc1C(=O)N1c2ccccc2Sc2ccccc21 | 0.756% |
| O=C(c1cc(-c2ccc(Cl)cc2)on1)N1CCN(c2ccc(F)cc2)CC1 | 21.5% |

| SMILES | hERG current change (%, negative = inhibition) at 10uM |
| --- | --- |
| Cc1ccc2nc(SCC(=O)N3c4ccccc4CC3C)c(C)cc2c1 (stereo not drawn) | 7.54% |
| CCCS(=O)(=O)c1nc(S(=O)(=O)c2ccc(C)cc2)c(NCCN2CCOCC2)s1 | -18.3% |
| NS(=O)(=O)c1ccc(CCNC(=O)CSc2nnc3ccccn23)cc1 | 37.8% |
| Cc1cc(C)cc(Nc2ccc(C(=O)O)cc2N)c1 | 14.6% |
| COc1ccc(NC(=O)CSc2nnc(-c3ccc(C)cc3)n2N)cc1 | 4.62% |
| CN(C)C/C(Cl)=C(\Cl)c1ccccc1 | 11.1% |
| CCCCn1c2ccc(F)cc2c2nnc(SCCN3CCOCC3)nc21 | -55.4% |
| CCc1nc2cccnc2n1-c1ccc(C(=O)O)cc1 | 5.08% |
| Cc1cc(OCC(=O)N2CCN(c3cccc(Cl)c3)CC2)c2c(C)c(C)c(=O)oc2c1 | 8.83% |
| CCOc1ccc(-c2nnc(SCC(=O)N3CCNC3=O)o2)cc1 | 18.7% |
| CC(NS(=O)(=O)c1ccc(CCC(=O)NCC2CCCO2)cc1)c1ccccc1 (stereo not drawn) | 15.5% |
| COc1cc(C(=O)Nc2ccccc2N2CCOCC2)ccc1OCc1c(C)noc1C | -28.8% |
| O=C(CCNC(=O)C1CCN(S(=O)(=O)c2ccc(F)cc2)CC1)NCc1ccccc1 | 2.4% |
| O=C(O)c1ccc(C[n+]2c(-c3ccccc3)csc2Nc2ccccc2)cc1.[Br-] | 5.57% |
| COc1cccc(CN2CC(C(=O)N3CCCC3)CCC2=O)c1 (stereo not drawn) | 19.4% |
| CC(C)Sc1nc(N)nc(-c2cccs2)c1C#N | 1.2% |
| O=C(NCc1ccccc1)c1ccc(N2CCC3(CC2)CC(c2ccc(Cl)cc2)=NO3)c([N+](=O)[O-])c1 | 11.6% |
| O=C1NC2(CCCc3ccccc32)C(=O)N1Cc1nnc(-c2ccccc2Br)o1 (stereo not drawn) | -4.24% |
| Cc1ccccc1NC(=O)C1C2CC/C=C\CCC21 (stereo not drawn) | 34% |
| COc1ccc(-c2nn(-c3ccccc3)cc2/C=C(\CC(=O)O)c2nc3ccccc3s2)cc1OC | 23.6% |
| Cc1occc1-c1nnc(SCC(=O)Nc2ccccn2)o1 | 7.09% |
